# Test results from publication PMC6664820, “Novel natural and synthetic inhibitors of solute carriers SGLT1 and SGLT2” (Pharmacology Research & Perspectives, 2019).
# Screen size: about 1,900 compounds; about 40 (2%) showed an effect of 50% or more. The list shows a part of the results. Residues, ends and D or L forms follow the SMILES beside them.
# Molecular target: human SGLT1 (hSGLT1) (human, UniProt P13866)
# Experiment: primary screen, percent of control activity; higher = less effect of the substance
# Parameters: single well
# Details: 50 µM
# Method: Two days before the assay, CHO‐wild type and CHO‐hSGLT1 cells were seeded in maintenance medium at 25 000 cells/well in clear‐bottom black 96‐well cell culture plates. Before the assay, cells were washed 3 times with 150 μL/well D‐glucose free DMEM with 0.3% (w/v) BSA. Library compounds at 50 μmol/L (singlicate) prepared in D‐glucose free DMEM with 160 μmol/L 1‐NBD‐glucose and 0.3% (w/v) BSA and negative controls (triplicate) were added at 100 μL/well and placed in a humidified incubator at 37°C with 5% CO2 for 90 minutes. Next, cells were washed 3 times with DMEM with 0.3% (w/v) BSA (150 μL/well). Care was taken to remove all medium after the last wash. Finally, 1‐NBD‐glucose was extracted from the cells by adding 10 μL/well isopropanol and orbital shaking for 5 minutes at 600 rpm, followed by incubation in the dark for 30 minutes. Fluorescence was measured on a Tecan Infinite M200 Microplate Reader (Tecan, Männedorf, Switzerland) with excitation at 445 nm and emission at 525 nm. The amount of 1‐NBD‐glucose taken up by the CHO‐wild type or CHO‐hSGLT1 cells in the presence or absence of test compounds was interpolated from 1‐NBD‐glucose calibration standards. The background uptake by CHO‐wild type was subtracted from the uptake by CHO‐hSGLT1. Background corrected uptake with test compound was expressed as a percentage of corrected uptake without test compound.
# human SGLT1 (hSGLT1), sequence (P13866 whole entry, looked up): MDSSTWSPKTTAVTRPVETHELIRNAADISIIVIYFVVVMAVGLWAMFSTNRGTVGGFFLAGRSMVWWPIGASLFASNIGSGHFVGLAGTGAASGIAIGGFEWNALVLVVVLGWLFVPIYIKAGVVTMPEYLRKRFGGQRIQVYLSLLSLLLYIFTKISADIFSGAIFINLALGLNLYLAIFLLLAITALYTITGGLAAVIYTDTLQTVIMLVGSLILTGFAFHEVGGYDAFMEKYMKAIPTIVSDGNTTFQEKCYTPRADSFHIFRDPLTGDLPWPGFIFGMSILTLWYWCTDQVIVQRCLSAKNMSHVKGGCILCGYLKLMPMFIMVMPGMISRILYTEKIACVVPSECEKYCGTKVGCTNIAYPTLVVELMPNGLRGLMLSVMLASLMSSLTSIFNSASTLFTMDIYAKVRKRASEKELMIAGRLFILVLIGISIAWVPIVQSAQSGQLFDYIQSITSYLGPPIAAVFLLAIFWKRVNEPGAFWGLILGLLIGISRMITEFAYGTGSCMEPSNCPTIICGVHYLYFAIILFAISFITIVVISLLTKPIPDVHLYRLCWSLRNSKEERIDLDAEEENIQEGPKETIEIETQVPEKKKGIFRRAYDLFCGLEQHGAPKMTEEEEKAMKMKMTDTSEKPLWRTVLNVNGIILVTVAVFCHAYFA
row,Compound,NORMALIZED SGLT1 ACTIVITY (%)
1,Cl.NC(CO)C(=O)NNCc1ccc(O)c(O)c1O (stereo not drawn),108
2,COc1ccc2cc1Oc1ccc(cc1)C[C@H]1c3c(cc4c(c3Oc3cc5c(cc3OC)CCN(C)[C@@H]5C2)OCO4)CCN1C,100
3,COP(=S)(OC)Oc1ccc(Sc2ccc(OP(=S)(OC)OC)cc2)cc1,84
4,COC(=O)N/N=C/c1c[n+]([O-])c2ccccc2[n+]1[O-],116
5,O=C(O)c1ccccc1OP(=O)(O)O,104
6,CCOP(=S)(OCC)Oc1nc(Cl)c(Cl)cc1Cl,35
7,COc1c(C(C)C)oc2cc3oc(=O)ccc3cc12,192
8,C[C@H]1C[C@@H](O)[C@]2(O)[C@@]13CC(=O)OC[C@@]2(C)[C@](C)(O)C(=O)C3,72
9,CS(C)(=O)=O,83
10,COc1cc2c(cc1O)C(Cc1ccc(O)cc1)N(C)CC2 (stereo not drawn),89
11,Cc1ccc2c(Cl)cc(Cl)c(O)c2n1,100
12,COc1cc(O)c2c(=O)cc(-c3ccc(OC)c(-c4c(O)cc(O)c5c(=O)cc(-c6ccc([O-])cc6)oc45)c3)oc2c1.[K+],246
13,CC[C@H]1OC(=O)[C@H](C)C(=O)[C@H](C)[C@@H](O[C@@H]2O[C@H](C)C[C@H](N(C)C)[C@H]2O)[C@](C)(OC)C[C@@H](C)C(=O)[C@H](C)[C@H]2N(CCCCn3cnc(-c4cccnc4)c3)C(=O)O[C@]12C,103
14,COc1cc(OC)c(-c2c(OC)cc(OC)cc2OC)c(OC)c1,105
15,Sc1nc2ccccc2s1,141
16,CO[C@@H]1[C@@H](O[C@@H]2O[C@H](C)[C@@H](O[C@H]3C[C@@](C)(O)[C@H](O)[C@H](C)O3)[C@H](N(C)C)[C@H]2O)[C@@H](CC=O)C[C@@H](C)[C@@H](O[C@H]2CC[C@H](N(C)C)[C@@H](C)O2)/C=C/C=C/C[C@H](C)OC(=O)C[C@H]1O,121
17,Cc1cc(=O)c2c(O)c3c(cc2o1)OCC(C)CC3 (stereo not drawn),155
18,COc1ccc(-c2coc3cc(O)ccc3c2=O)cc1,259
19,CC(C)(C)N.CCC[C@H](N[C@@H](C)C(=O)N1[C@H](C(=O)O)C[C@@H]2CCCC[C@@H]21)C(=O)OCC,79
20,COc1c2c(cc3occ(-c4ccc5c(c4)OCO5)c(=O)c13)OC(C)(C)C=C2,131
21,CC1(C)S[C@@H]2C(N3C(=O)[C@@H](c4ccccc4)NC3(C)C)C(=O)N2[C@H]1C(=O)[O-].[K+] (stereo partly drawn),81
22,CCOc1cccc(C(=O)c2ccc(O)c(O)c2O)c1,139
23,CC(=O)O[C@@H]1CC2C(C)(CC[C@H](O)C2(C)C)C2CC[C@]3(C)C(=CC(=O)O[C@H]3c3ccoc3)C21C (stereo partly drawn),215
24,CCCCCCc1ccc(O)cc1O,576
25,COc1ccc(-c2c(O)c3c(OC)c4c(cc3oc2=O)OC(C)(C)C=C4)cc1,184
26,CC(C)(C)NCC(O)c1ccccc1Cl.Cl (stereo not drawn),104
27,CC[C@H]1CN2CCc3cc(OC)c(OC)cc3[C@@H]2C[C@@H]1C[C@H]1NCCc2cc(OC)c(OC)cc21.Cl.Cl,137

row,Compound,NORMALIZED SGLT1 ACTIVITY (%)
1,O[C@H]1[C@H]2c3cc4c(cc3CN3CCC(=C[C@@H]1O)[C@H]23)OCO4,156
2,CCCCNC(=O)NS(=O)(=O)c1ccc(C)cc1,122
3,CN1C(C(=O)Nc2ccccn2)=C(O)c2sccc2S1(=O)=O,181
4,COc1ccc(/C=C/c2cc(O)cc(O[C@@H]3O[C@H](CO)[C@@H](O)[C@H](O)[C@H]3O)c2)cc1O,84
5,Cl.NCCc1ccccc1S(=O)(=O)F,150
6,COC(=O)[C@H]1[C@H]2C[C@H]3c4[nH]c5cc(OC)ccc5c4CCN3C[C@H]2C[C@@H](OC(=O)c2cc(OC)c(OC)c(OC)c2)[C@@H]1OC,345
7,CC(=O)[C@H]1CC[C@H]2[C@@H]3C[C@H](C)C4=CC(=O)CC[C@]4(C)[C@H]3[C@@H](O)C[C@]12C,184
8,COC(=O)c1c(C)cc(O)cc1O,184
9,CCc1cccc2c3c([nH]c12)C(CC)(CC(=O)O)OCC3 (stereo not drawn),123
10,C=C(C)c1cc2cc(C(C)=O)c(O)cc2o1,146
11,CC[C@H](CCC(C)[C@H]1CCC2C3CCC4C[C@@H](O)CC[C@]4(C)C3CC[C@@]21C)C(C)C (stereo partly drawn),82
12,CC1(C)CC2C1CCC1(C)OC2(C)CCC1O (stereo not drawn),126
13,CC(C)CCCC(C)C1CCC2C3CC[C@H]4CCCC[C@]4(C)C3CC[C@]12C (stereo partly drawn),69
14,CC(C)=CCc1c(O)cc2oc(C)cc(=O)c2c1O,260
15,COc1c(C)c2c(c(O)c1C/C=C(\C)CCC(=O)O)C(=O)OC2,194
16,CC[C@]12CCCN3CCc4c(n(c5ccccc45)C(=O)C1)[C@@H]32,108
17,CC1(C)CC[C@]2(C(=O)O)CC[C@]3(C)C(=CCC4[C@@]5(C)CC[C@@H](O)C(C)(C)C5CC[C@]43C)C2C1 (stereo partly drawn),133
18,COc1cc(-c2coc3cc(O[C@@H]4O[C@H](CO)[C@@H](O)[C@H](O)[C@H]4O)c(OC)c(O)c3c2=O)cc(O)c1OC,111
19,COc1c2c(cc3c1OCO3)CC[N+](C)=C2.[Cl-],98
20,COc1ccc(C(CN(C)C)C2(O)CCCCC2)cc1.Cl (stereo not drawn),93
21,NC(=O)NC(=O)Cc1ccccc1,137
22,C=C[C@@](C)(O)CCC1C(=C)C[C@H](OC(C)=O)C2C(C)(C)CCCC12C (stereo partly drawn),128
23,CC12CCC(O)CC1CCC1C2[C@H](O)CC2(C)C(C3=CC(=O)OC3)CCC12O (stereo partly drawn),155
24,COC(=O)NC(=S)Nc1ccccc1NC(=S)NC(=O)OC,130
25,CC(C)CC(NC(=O)CN)C(=O)NC(Cc1ccccc1)C(=O)O (stereo not drawn) (H-Gly-Leu-Phe-OH; configuration not given here),94
26,Cn1c(=O)c2[nH]cnc2n(C)c1=O,147
27,CN[C@@H]1[C@H](OC2[C@H](O[C@H]3[C@H](O)[C@@H](O)[C@H](NC(=N)N)[C@@H](O)[C@@H]3NC(=N)N)O[C@@H](C)[C@]2(O)C=O)O[C@@H](CO)[C@H](O)[C@H]1O.O=S(=O)(O)O (stereo partly drawn),114
